US11207320B2, “Compositions and methods for cancer expressing PDE3A or SLFN12” (The Broad Institute, Inc., priority 2015, dated 2021)
Further values from the same series stand in other lists.

Tested on: 766 cancer cell lines
Assay: Large-scale cell-line viability measurements (766 cancer cell lines, 72 h, AUC)
Format: cell-based, human
Experimental: Cell lines were treated for 72 hours with concentrations ranging from 66.4 μM-2 nM in 2-fold step dilutions.
To characterize cellular sensitivity to DNMDP further, 766 genomically characterized cancer cell lines were screened for DMNDP sensitivity at concentrations ranging from 66.4 μM to 2 nM in 2-fold dilution steps for 72 hours. From these cell lines, 22 cell lines were categorized as sensitive with a robust Z-score lower than −4, which represented multiple lineages including multiple melanoma cell lines, amongst others (Table 1).
The sensitivity of […] cancer cell lines (CCLs) was measured drawn from 23 different lineages to DNMDP. Each cell line was plated in its preferred media in white opaque 1536-plates at a density of 500 cells/well. After incubating overnight, DNMDP was added by acoustic transfer at 16 concentrations ranging from 66.4 μM-2 nM in 2-fold steps in duplicate (Labcyte Echo 555, Labcyte Inc., Sunnyvale, Calif.). After 72 hours treatment, cellular ATP levels were measured as a surrogate for viability (CELLTITERGLO®, Promega Corporation, Madison, Wis.) according to manufacturer's protocols using a ViewLux Microplate Imager (PerkinElmer, Waltham, Mass.) and normalized to background (media-only) and vehicle (DMSO)-treated control wells.
Concentration response curves were fit using nonlinear fits to 2- or 3-parameter sigmoid functions through all 16 concentrations with the low-concentration asymptote set to the DMSO-normalized value, and an optimal 8-point dose curve spanning the range of compound-sensitivity was identified. The area under the 8-point dose curve (AUC) was computed by numeric integration as a metric for sensitivity for further analysis. Similar sensitivity measurements have been obtained for a collection of 480 other compounds, enabling analyses that identify cell lines responding uniquely to DNMDP (see Broad Institute Cancer Therapeutics Response Portal, a dataset to identify comprehensively relationships between genetic and lineage features of human cancer cell lines and small-molecule sensitivities for complete list of compounds).

[1] = cell line NCIH508, LARGE INTESTINE, 72 hours
[2] = cell line NCIH716 (LARGE INTESTINE)
[3] = cell line NCIH747 (LARGE INTESTINE)
[4] = cell line NCIH889, LUNG, 72 hours
[5] = cell line NCIH929 (HAEMATOPOIETIC AND LYMPHOID TISSUE)
[6] = cell line NCIH1092, LUNG, 72 hours
[7] = cell line NCIH2171, LUNG, 72 hours
[8] = cell line NCIH2196, LUNG, 72 hours
[9] = cell line NCIH2444, LUNG, 72 hours
[10] = cell line NMCG1, CENTRAL NERVOUS SYSTEM, 72 hours
[11] = cell line NUDHL1, HAEMATOPOIETIC AND LYMPHOID TISSUE, 72 hours

Structure (SMILES): CCN(CC)c1ccc(C2=NNC(=O)CC2C)cc1[N+](=O)[O-] (stereo not drawn) [DNMDP, 6-(4-(diethylamino)-3-nitrophenyl)-5-methyl-4,5-dihydropyridazin-3(2H)-one]
- Robust Z-score (cell line NCIH460 (LUNG)): 0.1786
- DNMDP AUC [1]: 7.2176
- Robust Z-score [1]: 0.6119
- DNMDP AUC (cell line NCIH526 (LUNG)): 7.0825
- Robust Z-score (cell line NCIH526 (LUNG)): 0.4701
- DNMDP AUC (cell line NCIH596 (LUNG)): 6.7123
- Robust Z-score (cell line NCIH596 (LUNG)): 0.08151
- DNMDP AUC (cell line NCIH650 (LUNG)): 6.7194
- Robust Z-score (cell line NCIH650 (LUNG)): 0.08896
- DNMDP AUC (cell line NCIH661 (LUNG)): 7.0832
- Robust Z-score (cell line NCIH661 (LUNG)): 0.4708
- DNMDP AUC [2]: 6.5964
- Robust Z-score [2]: −0.04015
- DNMDP AUC (cell line NCIH727 (LUNG)): 6.6253
- Robust Z-score (cell line NCIH727 (LUNG)): −0.009814
- DNMDP AUC [3]: 6.8075
- Robust Z-score [3]: 0.1814
- DNMDP AUC (cell line NCIH810 (LUNG)): 6.9222
- Robust Z-score (cell line NCIH810 (LUNG)): 0.3018
- DNMDP AUC (cell line NCIH838 (LUNG)): 6.6448
- Robust Z-score (cell line NCIH838 (LUNG)): 0.01065
- DNMDP AUC (cell line NCIH841 (LUNG)): 6.7036
- Robust Z-score (cell line NCIH841 (LUNG)): 0.07237
- DNMDP AUC [4]: 7.4952
- Robust Z-score [4]: 0.9033
- DNMDP AUC [5]: 6.5755
- Robust Z-score [5]: −0.06209
- DNMDP AUC [6]: 7.139
- Robust Z-score [6]: 0.5294
- DNMDP AUC (cell line NCIH1299 (LUNG)): 6.9991
- Robust Z-score (cell line NCIH1299 (LUNG)): 0.3825
- DNMDP AUC (cell line NCIH1341 (LUNG)): 6.7337
- Robust Z-score (cell line NCIH1341 (LUNG)): 0.104
- DNMDP AUC (cell line NCIH1373 (LUNG)): 7.0318
- Robust Z-score (cell line NCIH1373 (LUNG)): 0.4169
- DNMDP AUC (cell line NCIH1623 (LUNG)): 6.862
- Robust Z-score (cell line NCIH1623 (LUNG)): 0.2386
- DNMDP AUC (cell line NCIH1650 (LUNG)): 6.825
- Robust Z-score (cell line NCIH1650 (LUNG)): 0.1998
- DNMDP AUC (cell line NCIH1694 (LUNG)): 6.7095
- Robust Z-score (cell line NCIH1694 (LUNG)): 0.07857
- DNMDP AUC (cell line NCIH1755 (LUNG)): 6.771
- Robust Z-score (cell line NCIH1755 (LUNG)): 0.1431
- DNMDP AUC (cell line NCIH1781 (LUNG)): 6.6169
- Robust Z-score (cell line NCIH1781 (LUNG)): −0.01863
- DNMDP AUC (cell line NCIH1792 (LUNG)): 7.0701
- Robust Z-score (cell line NCIH1792 (LUNG)): 0.4571
- DNMDP AUC (cell line NCIH1838 (LUNG)): 6.8375
- Robust Z-score (cell line NCIH1838 (LUNG)): 0.2129
- DNMDP AUC (cell line NCIH2023 (LUNG)): 6.6954
- Robust Z-score (cell line NCIH2023 (LUNG)): 0.06377
- DNMDP AUC (cell line NCIH2029 (LUNG)): 6.6826
- Robust Z-score (cell line NCIH2029 (LUNG)): 0.05033
- DNMDP AUC (cell line NCIH2030 (LUNG)): 6.5688
- Robust Z-score (cell line NCIH2030 (LUNG)): −0.06912
- DNMDP AUC (cell line NCIH2052 (PLEURA)): 6.8321
- Robust Z-score (cell line NCIH2052 (PLEURA)): 0.2073
- DNMDP AUC (cell line NCIH2085 (LUNG)): 6.8317
- Robust Z-score (cell line NCIH2085 (LUNG)): 0.2068
- DNMDP AUC (cell line NCIH2087 (LUNG)): 6.6806
- Robust Z-score (cell line NCIH2087 (LUNG)): 0.04823
- DNMDP AUC (cell line NCIH2126 (LUNG)): 6.9473
- Robust Z-score (cell line NCIH2126 (LUNG)): 0.3282
- DNMDP AUC (cell line NCIH2170 (LUNG)): 6.6424
- Robust Z-score (cell line NCIH2170 (LUNG)): 0.008135
- DNMDP AUC [7]: 7.3416
- Robust Z-score [7]: 0.742
- DNMDP AUC [8]: 7.7386
- Robust Z-score [8]: 1.159
- DNMDP AUC (cell line NCIH2291 (LUNG)): 7.0654
- Robust Z-score (cell line NCIH2291 (LUNG)): 0.4521
- DNMDP AUC (cell line NCIH2342 (LUNG)): 6.6346
- Robust Z-score (cell line NCIH2342 (LUNG)): −5.248E−05
- DNMDP AUC (cell line NCIH2405 (LUNG)): 6.7785
- Robust Z-score (cell line NCIH2405 (LUNG)): 0.151
- DNMDP AUC [9]: 7.2606
- Robust Z-score [9]: 0.657
- DNMDP AUC (cell line NCIH2452 (PLEURA)): 6.9169
- Robust Z-score (cell line NCIH2452 (PLEURA)): 0.2963
- DNMDP AUC [10]: 7.1746
- Robust Z-score [10]: 0.5668
- DNMDP AUC [11]: 7.2677
- Robust Z-score [11]: 0.6645
- DNMDP AUC (cell line NUGC3 (STOMACH)): 6.9527
